The full ranking holds about 33,000 sequences; the median of “E-score (-0.5 to 0.5)” is about -0.035, and the highest 2% start at about 0.34. The list shows a part of the results.
Each sequence was assayed against T1, Mot3 (UniProt P54785) (assay: PBM E-score (8-mer binding enrichment) (E-score (-0.5 to 0.5)); higher = stronger / more preferred TF binding; most listed sequences are background and not binding sites). Conditions: protein concentration: 200 nM; construct: GST-full length.
T1 sequence: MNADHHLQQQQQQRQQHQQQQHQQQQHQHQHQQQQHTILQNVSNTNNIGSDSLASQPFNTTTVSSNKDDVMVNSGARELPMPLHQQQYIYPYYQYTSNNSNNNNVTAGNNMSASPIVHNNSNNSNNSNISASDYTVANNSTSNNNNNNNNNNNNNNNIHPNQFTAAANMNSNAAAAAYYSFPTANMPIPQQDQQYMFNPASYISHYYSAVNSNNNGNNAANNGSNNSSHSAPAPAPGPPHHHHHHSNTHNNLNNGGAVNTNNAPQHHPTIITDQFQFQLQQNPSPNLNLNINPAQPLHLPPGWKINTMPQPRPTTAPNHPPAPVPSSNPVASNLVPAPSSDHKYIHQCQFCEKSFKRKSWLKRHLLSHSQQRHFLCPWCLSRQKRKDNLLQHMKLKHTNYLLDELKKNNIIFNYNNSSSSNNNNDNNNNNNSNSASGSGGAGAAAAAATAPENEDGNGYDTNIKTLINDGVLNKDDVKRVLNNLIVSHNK
Experimental: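 Universal 'all 10-mer' protein binding microarrays (Agilent AMADID 015681) probed with GST-tagged S. cerevisiae TFs (full-length or DBD) made by in vitro transcription/translation (PURExpress), about 100-200 nM. Bound TF was detected with fluorescent anti-GST. Each ungapped 8-mer (which stands for itself and its reverse complement) is scored by the PBM enrichment score (E-score), a modified Wilcoxon-Mann-Whitney statistic from -0.5 to +0.5, computed with the Universal PBM Analysis Suite. Scale: above 0.35 generally sequence-specific binding.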

| Sequence | PBM E-score |
| --- | --- |
| GAATTTCC | 0.0437 |
| ATCAGGCC | -0.0425 |
| CGTATACG | 0.0487 |
| AACTAGAC | -0.0673 |
| AGCTCGAG | -0.191 |
| ACCTACGG | -0.0217 |
| AAAAATAC | 0.0348 |
| ACAAACTC | 0.0169 |
| GGATATGA | -0.218 |
| CGGAAGAG | -0.134 |
| GTGAACTA | 0.108 |
| CTCTCGAA | 0.0432 |
| AGGGAGGG | -0.269 |
| GGCTATCA | -0.135 |
| CTCTACCA | -0.192 |
| AGAGGGAT | -0.183 |
| AGTAGTGA | -0.0837 |
| CACTCGAA | 0.0251 |
| AAGAGTTG | 0.0434 |
| AGTATGCA | -0.0269 |
| GCGGACAA | -0.139 |
| TAGTTACA | 0.314 |
| AAGTGAAT | 0.0211 |
| CAGTCTTC | -0.243 |

| Sequence | PBM E-score |
| --- | --- |
| CAGAGGCG | -0.149 |
| AGAATGAC | -0.0267 |
| ACTCGCTG | -0.176 |
| GTTCCAAC | -0.0662 |
| ACCTCAGG | -0.0976 |
| ACCAATCG | -0.166 |
| CACCCGGC | -0.19 |
| GTCCGGAC | 0.0843 |
| CTCGCCAG | -0.132 |
| AAAGACTA | -0.0333 |
| CGTCCTAG | 0.0293 |
| TATTGTGA | 0.124 |
| AGCTTCGC | -0.106 |
| CGTAGATC | 0.0629 |
| ACTAGACA | 0.0926 |
| CAGCTATC | -0.259 |
| CCCCATCA | -0.207 |
| ATCTAATA | 0.148 |
| ATGTATGC | 0.271 |
| CCGTACGC | -0.235 |
| ATCCCCAT | 0.00841 |
| CAAGGGAG | -0.123 |
| AAGCCGGT | -0.12 |
| GCGGGAGC | -0.273 |

| Sequence | PBM E-score |
| --- | --- |
| GGCCAGCA | -0.161 |
| CAAAGGTG | 0.0423 |
| GCTGTGCA | -0.0637 |
| CCCCCCGC | -0.341 |
| GGCAGGCC | -0.165 |
| GCGACCCA | -0.269 |
| CTTTCCTC | 0.0989 |
| GGAGACAA | -0.0183 |
| CCCAATCC | -0.106 |
| CCATCAGC | -0.189 |
| AATCCTAT | -0.144 |
| CCAGGTTC | 0.0333 |
| ACGTTCCG | -0.144 |
| CCTGCCAG | 0.0836 |
| GTTCCGGA | -0.201 |
| ATGATCCG | -0.114 |
| AGTGGTAC | -0.108 |
| AGAGGATA | -0.0833 |
| AGAATAGG | 0.0659 |
| AAAACGAC | -0.00705 |
| ATGCAGCG | -0.243 |
| CAAACTGG | -0.208 |
| GAGGTCCA | -0.194 |
| CTTGGGTC | -0.311 |

| Sequence | PBM E-score |
| --- | --- |
| TTGGAAAA | 0.0808 |
| AGGCAATA | 0.472 |
| CACCCTCG | -0.108 |
| AACGAATA | 0.0301 |
| GCAGTAGC | -0.188 |
| ACGGGGAT | -0.188 |
| AGGCGCCT | 0.302 |
| ATGAGAAG | 0.0514 |
| AGCTGTTG | 0.0817 |
| TCGAGTAA | 0.172 |
| ACGCGAGC | -0.0425 |
| AGTACGAC | 0.0306 |
| AGGAGAAG | -0.16 |
| AATAATAT | 0.2 |
| CTTGTCAA | 0.256 |
| AGCCATTC | -0.0521 |
| CCACATGG | -0.192 |
| CACGTGTA | 0.383 |
| GACATCTA | -0.0872 |
| AAGTCTGA | -0.133 |
| CGAGGCCG | -0.349 |
| CACAGAAC | 0.0199 |

Reference: the supplement of paper PMC3334620
